# According to PubChem BioAssay AID2676 (National Center for Advancing Translational Sciences (NCATS), 2010):
# The whole screen tested about 370,000 compounds, of which about 1,100 (0.3%) were called active. This list was built around the results that the source calls inconclusive (neither active nor inactive); the mix of calls is not that of the screen. Calls follow the shape of the dose curve; as a rule, active = well fitted activation curve with a large enough effect; inconclusive = small, poorly fitted or top-dose-only effect; inactive = flat fitted curve, though single readings scatter. Where the call is inconclusive, the potency comes from a doubtful curve fit.
# Target: Relaxin receptor 1 (Homo sapiens) (UniProt Q9HBX9)
# UniProt Q9HBX9, sequence (Q9HBX9 whole entry, looked up): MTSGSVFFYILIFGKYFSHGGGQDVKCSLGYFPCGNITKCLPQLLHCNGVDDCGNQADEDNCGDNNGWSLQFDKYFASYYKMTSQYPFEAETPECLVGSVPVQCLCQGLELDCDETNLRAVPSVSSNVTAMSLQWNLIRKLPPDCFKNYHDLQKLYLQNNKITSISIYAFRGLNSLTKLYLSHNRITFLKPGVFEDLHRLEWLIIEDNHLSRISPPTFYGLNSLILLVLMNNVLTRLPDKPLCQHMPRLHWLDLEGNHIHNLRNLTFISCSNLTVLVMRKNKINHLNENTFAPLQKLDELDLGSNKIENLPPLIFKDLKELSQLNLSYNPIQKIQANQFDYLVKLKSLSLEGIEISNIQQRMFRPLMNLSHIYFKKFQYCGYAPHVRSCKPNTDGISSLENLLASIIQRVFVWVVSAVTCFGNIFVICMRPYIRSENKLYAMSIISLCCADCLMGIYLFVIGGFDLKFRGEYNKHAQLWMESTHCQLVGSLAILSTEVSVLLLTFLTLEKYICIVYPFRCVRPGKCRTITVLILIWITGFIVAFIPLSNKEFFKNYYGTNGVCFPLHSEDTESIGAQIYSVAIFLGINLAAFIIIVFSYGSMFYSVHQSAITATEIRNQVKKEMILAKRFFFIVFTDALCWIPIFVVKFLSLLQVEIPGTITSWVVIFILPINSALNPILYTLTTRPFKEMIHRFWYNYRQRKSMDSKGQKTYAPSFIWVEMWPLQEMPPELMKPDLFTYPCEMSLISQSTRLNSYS
# Assay: qHTS Assay for Agonists of the Relaxin Receptor RXFP1; also: nearly all actives have a fitted effect of over 60% in size
# Conditions: HEK293T-RXFP1 cAMP TR-FRET, 30 min; series mostly up to 57.5 µM
# In short: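 cAMP rise read by TR-FRET after 30 min, 37C compound exposure (up to 58 uM) in RXFP1-transfected HEK293 cells with Ro 20174 present. EC50 from Hill-equation fits, with 29 nM porcine relaxin as 100% and buffer as basal.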
# Potency is read from the fitted curve at half-maximal effect; tags tell the direction and shape of the fitted curve.
row,SMILES,Potency
1,O=C(Cn1c(=O)c(C(F)(F)F)nc2ccccc21)Nc1cccc(Br)c1,"inconclusive: 39.8 µM [activator, single point]"
2,CC1(C)NC(=O)N(CC(=O)OCc2cc(=O)n3cc(Br)ccc3n2)C1=O,"inconclusive: 25.1 µM [activator, partial curve]"
3,Cc1ccc(NC(=O)C(C)Sc2nc(-c3ccccc3)c(C#N)c(=O)[nH]2)c(C)c1 (stereo unspecified),"inconclusive: 31.6 µM [activator, single point]"
4,CC(C)Cc1nn2c(=O)cc(COC(=O)c3ccc(NC(=O)CCc4ccccc4)cc3)nc2s1,"inconclusive: 28.2 µM [activator, single point]"
5,CC(CNC(=O)CCc1nnc2ccc(N3CCC4(CC3)OCCO4)nn12)c1ccccc1 (stereo unspecified),"inconclusive: 25.1 µM [activator, partial curve]"
6,COc1ccc(OCc2nnc(SCC(=O)N3CCCc4ccccc43)n2-c2ccc(C)cc2)cc1,inactive
7,CCCOc1ccc(C2C(C(=O)c3ccco3)=C(O)C(=O)N2CCN2CCOCC2)cc1OC (stereo unspecified),inactive
8,O=C(NC1CCCCC1)c1ccc(CSc2nc3cccnc3n2Cc2ccc(F)cc2)cc1,"inconclusive: 39.8 µM [activator, single point]"
9,O=C(CN1C(=O)COc2ccc(S(=O)(=O)N3CCCC3)cc21)N1CCN(c2ccc(F)cc2)CC1,inactive
10,COc1ccc(-c2cn3nc(N4CCC(C(=O)Nc5cccc(Cl)c5)CC4)sc3n2)cc1,"inconclusive: 39.8 µM [activator, single point]"
11,COC(=O)c1ccc(CC(=O)c2nc3ccccc3s2)cc1,inactive
12,CCCCNC(=O)c1cc(Sc2ccc(OCC)cc2)nc2ccccc12,"inconclusive: 39.8 µM [activator, single point]"
13,COc1cc(NC2CCCCC2O)c2nc(-c3ccc(Cl)cc3)ccc2c1 (stereo unspecified),inactive
14,COc1cc(/C=N/NC(=O)Cc2nnc(N)s2)cc(OC)c1OC,inactive
15,Cc1ccc(S(=O)(=O)c2c(N)n(CCN3CCOCC3)c3nc4ccccc4nc23)cc1C,"inconclusive: 35.5 µM [activator, single point]"
16,CCOC(=O)c1ccc(NC(=O)Cn2cc(C(=O)c3ccc(CC)cc3)c(=O)c3ccc(C)nc32)cc1,active: 31.6 µM
17,N#Cc1ccc(OC(=O)C2CCN(C3=NS(=O)(=O)c4ccccc43)CC2)cc1,"inconclusive: 35.5 µM [activator, single point]"
18,COc1ccc(C(=O)Nc2cccc(OCc3cc(=O)n4c5c(sc4n3)CCCC5)c2)cc1,"inconclusive: 39.8 µM [activator, single point]"
19,O=C(O)c1ccccc1NC(=S)NC(=O)c1sc2ccccc2c1Cl,"inconclusive: 28.2 µM [activator, partial curve]"
20,COc1ccc(CNC(=O)CSc2nc3ccccc3nc2Cc2ccccc2OC)cc1,"inconclusive: 31.6 µM [activator, partial curve]"
21,COc1cccc(C(=O)c2cn(CC(=O)NCc3ccccc3)c3nc(C)ccc3c2=O)c1,"inconclusive: 28.2 µM [activator, single point]"

row,SMILES,Potency
1,COc1cc(OC)c(C2Nc3c(C)cccc3-c3cc(C)nn32)cc1OC (stereo unspecified),"inconclusive: 35.5 µM [activator, single point]"
2,Cc1ccc(-c2nnc(C3CCN(S(=O)(=O)c4ccc(C)c(C)c4)CC3)o2)cc1,inactive
3,CCCCOC(=O)c1ccc(NC(=O)CSc2nc3c(c(=O)[nH]2)CCCC3)cc1,inactive
4,Cc1ccc(NC(=O)Cn2c(=O)n(CCCCC(=O)NCc3ccccc3Cl)c(=O)c3ccccc32)cc1C,inactive
5,O=Cc1ccccc1-n1cccn1,inactive
6,O=C(Cn1c(=O)c(CNc2ccccc2)cc2cc3c(cc21)OCCO3)Nc1ccccc1Cl,"inconclusive: 28.2 µM [activator, partial curve]"
7,COCCn1c(-c2cc(OC)c(OC)c(OC)c2)nc2oc3cc(OC)ccc3c(=O)c2c1=O,"inconclusive: 28.2 µM [activator, single point]"
8,O=C(NCCc1ccccc1)C1CCN(c2nc3ccccc3nc2C(F)(F)F)CC1,"inconclusive: 35.5 µM [activator, single point]"
9,O=C(COc1ccc2ccccc2c1Br)N1CCCCC1,"inconclusive: 28.2 µM [activator, partial curve]"
10,COc1cc2ccccc2cc1C(=O)Nc1ccc(Cl)cn1,"inconclusive: 28.2 µM [activator, single point]"
11,CCOC(=O)CSc1nc(C(C)C)nc2ccccc12,"inconclusive: 28.2 µM [activator, partial curve]"
12,COc1cccc(C2/C(=C(/O)c3ccc4c(c3)CC(C)O4)C(=O)C(=O)N2CCCn2ccnc2)c1 (stereo unspecified),"inconclusive: 28.2 µM [activator, partial curve]"
13,COc1ccccc1C(=O)Nc1ccc(S(=O)(=O)Nc2ncccn2)cc1,"inconclusive: 15.8 µM [activator, partial curve]"
14,Cc1ccc(OCC(=O)NCCNC(=O)c2cnccn2)cc1C,"inconclusive: 17.8 µM [activator, partial curve]"
15,Cn1cc(S(=O)(=O)c2cccc(Cl)c2)c(=O)c2cc(F)c(N3CCCCC3)cc21,"inconclusive: 39.8 µM [activator, single point]"
16,O=C(CSc1nc(-c2ccccc2)nc2ccccc12)Nc1nccs1,"inconclusive: 31.6 µM [activator, single point]"
17,Cc1cccc(NC(=O)CN2C(=O)CSc3ccc(S(=O)(=O)N4CCCC4)cc32)c1C,"inconclusive: 35.5 µM [activator, single point]"
18,CCOc1ccc(N(CC)S(=O)(=O)N2CCCC(C(=O)Nc3ccc(OC)c(Cl)c3)C2)cc1 (stereo unspecified),"inconclusive: 35.5 µM [activator, single point]"
19,CCC1(C)Cc2c(sc3c2c2ncnn2c2nnc(SCC(=O)NCc4ccco4)n32)CO1 (stereo unspecified),"inconclusive: 3.98 µM [activator, full curve]"
20,Cc1cccc(Nc2nnc(-c3ccc(C)c(S(=O)(=O)N4CCN(C)CC4)c3)c3ccccc23)c1,inactive
